# PubChem BioAssay AID1347073 (National Center for Advancing Translational Sciences (NCATS), 2019)
# About 200 (0.44%) of roughly 45,000 compounds were called active. About 7% were inconclusive and are not listed. The call rests on the fitted dose curve; in most records, active means well fitted activation curve with a large enough effect; inconclusive means small, poorly fitted or top-dose-only effect; inactive means no such curve, though single readings can be large or run the other way. This is one part of the list.
# Assay: qHTS of TDP-43 Inhibitors: NCGC Sytravon Library Screen; further: 0% is about no effect; nearly all actives have a fitted effect of over 55% in size
# Details: yeast TDP-43 toxicity rescue, BacTiter-Glo growth, 24 h; series mostly up to 46.1 µM; growth rescue (activation): at the top concentration
# Summary of the method: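 TDP-43-expressing yeast, pregrown in raffinose, seeded at OD600 0.02 in galactose medium with compound for 24 hr at 30 deg C. Growth read by BacTiter-Glo luminescence, so rescue of toxicity appears as activation.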
row,SMILES,growth rescue (activation)
1,CCOc1ccc(S(=O)(=O)N2CCN(Cc3ccc4c(c3)OCO4)CC2)cc1C,inactive: -3.56%
2,OCCC1CN(Cc2cccc3c2OCO3)CCN1C1CCCC1 (centres undefined),inactive: 17.1%
3,O=C(O)c1cccc(S(=O)(=O)Nc2ccc(O)c(Sc3nc4ccccc4s3)c2)c1,inactive: 5.44%
4,N#C/C(=C/c1ccc(-c2ccc(S(N)(=O)=O)cc2)o1)c1nc2ccccc2s1,inactive: -13.5%
5,Cc1nc2ccccc2n1CC(O)c1ccccc1 (centres undefined),inactive: -8.37%
6,COc1ccc(N(CC(=O)Nc2cccc([N+](=O)[O-])c2C)S(C)(=O)=O)cc1OC,inactive: 18.6%
7,N#Cc1c(-c2ccco2)c2c([nH]c1=S)CCCC2,inactive: 27%
8,Cc1cc(C)cc(N(C(=O)c2snc(C(N)=O)c2N)C(C(=O)NCC2CCCO2)c2ccc(C)o2)c1 (centres undefined),inactive: 0.391%
9,CC(=O)c1cccc(OCC(=O)N2CCCc3ccccc32)c1,inactive: 29.2%
10,Cc1ccc(S(=O)(=O)NNC(=O)CCCCC(=O)NNS(=O)(=O)c2ccc(C)cc2)cc1,inactive: -15.2%
11,CCN(CC)c1ccc(N/C(N)=N/c2nc(C(F)(F)F)cc(=O)[nH]2)cc1,inactive: 0.139%
12,N#Cc1ccc(-c2ccc(OCC(=O)NCC(=O)Nc3ccc(F)c(F)c3F)cc2)cc1,inactive: 13.7%
13,O=C(COc1ccccc1Cl)Nc1ccc2oc(=O)ccc2c1,inactive: 13.2%
14,CC(/C=N/NC(=O)CSc1n[nH]c(=O)[nH]c1=O)=C\c1ccccc1,inactive: 17.2%
15,CCOC(=O)C1CCCN(C(=S)NC2CCCC2)C1 (centres undefined),inactive: 11.1%
16,O=C(NC(=S)Nn1cnnc1)c1ccccc1Cl,inactive: 10.9%
17,Cc1cc(=O)[nH]c(SCC(=O)N(CCC#N)c2ccccc2)c1C#N,inactive: -4.94%
18,CCCC(C(=O)NC1CCCC1)N(Cc1ccc(F)cc1)C(=O)c1snc(C(N)=O)c1N (centres undefined),inactive: -0.171%
19,C[C@]12C=C[C@H](O)CC1=CCC1C2CC[C@@]2(C)C1CCC21OCCO1 (some centres undefined),inactive: 0.0738%
20,O=C(CSc1n[nH]c(=O)[nH]c1=O)Nc1ccccc1C(=O)c1ccccc1,inactive: 8.73%
21,NS(=O)(=O)c1ccc(CCNC(=O)C2(S(=O)(=O)c3ccc(Cl)cc3)CC2)cc1,inactive: 5.09%
22,O=C(Nc1cccc(Cl)c1)C1CCN(C(=O)c2cccs2)CC1,inactive: 14%
23,CCOC(=O)c1sc(NC(=O)c2ccc(OC)cc2)nc1C,inactive: 7.43%
24,COc1ccc(OC)c(S(=O)(=O)N2CCCC(C(=O)N3CCOCC3)C2)c1 (centres undefined),inactive: -8.7%
25,CNCCCOc1cccc(OC(C)C)c1,inactive: 28.7%
26,N#C/C(=N\Nc1ccccc1F)c1nc(-c2ccccc2)cs1,inactive: 7.53%
27,O=C(COC(=O)/C=C/c1ccccc1Cl)NC(=O)Cc1ccccc1,inactive: 7.15%

row,SMILES,growth rescue (activation)
1,Nc1ccc(Oc2cc(N)cc(Oc3ccccc3)c2)cc1,inactive: 21.1%
2,Cc1ccc(-c2nc(CSc3nc4ccccc4c(=O)n3C)cs2)cc1,inactive: 30%
3,CC(C)c1nnc(SCC(=O)N2CCN(C(=O)c3ccco3)CC2)n1N,inactive: 7.6%
4,CC(=O)N1N=C(c2ccc(C)o2)CC1c1ccc(F)cc1 (centres undefined),inactive: 9.18%
5,CC(C)[C@H](NC(=O)c1ccco1)C(=O)OCC(=O)c1ccc(Br)s1,inactive: 0.501%
6,Cc1nc2scc(C)n2c(=O)c1S(=O)(=O)N1CCN(c2ccccc2)CC1,inactive: 6.11%
7,CCOc1ccc2c(c1)c(N=NC(=N)N)c(O)n2C,inactive: 10.7%
8,Nc1nnc(SCC(=O)NN2C(=O)NC3(CCCCC3)C2=O)s1,inactive: 1.44%
9,Cc1ccc(NC(=O)Cn2c(O)c(N=NC(N)=S)c3ccccc32)cc1,inactive: 7.35%
10,CSc1ccc(/C=C/C(=O)OCC(=O)N(C)CCC#N)cc1,inactive: -17.4%
11,Cc1cc(C)cc(NC(=O)CSc2n[nH]c(-c3cccnc3)n2)c1,inactive: 0.911%
12,O=c1[nH]c(C2CCN(S(=O)(=O)c3ccc4c(c3)OCCO4)CC2)nc2c1nnn2Cc1c(F)cccc1Cl,inactive: -8.48%
13,Cc1ccc(NC(=O)C2CCCN(c3nnc(-n4c(C)ccc4C)s3)C2)c(C)c1 (centres undefined),inactive: -3.69%
14,N#Cc1ccccc1Cn1c(=O)n(CCCC(=O)NCc2ccc3c(c2)OCO3)c(=O)c2sccc21,inactive: 0.451%
15,O=C(N/N=C/c1ccc([N+](=O)[O-])cc1)c1cccc2cc[nH]c12,inactive: 5.92%
16,O=C(Nc1ccc2c(c1)OCO2)c1cc(-c2ccc(O)cc2)on1,inactive: 6.34%
17,CC(C)c1onc(C(=O)NCc2ccccn2)c1[N+](=O)[O-],inactive: -12.8%
18,Cc1cc(C)c[n+](C[n+]2cc(C)cc(C)c2)c1,inactive: 9.15%
19,O=C(NCc1ccco1)c1cc(S(=O)(=O)NC2CC2)ccc1Br,inactive: 9.77%
20,CCOC(=O)c1cnc2c(C)c(C)ccc2c1Nc1ccc(S(=O)(=O)Nc2ncccn2)cc1,inactive: 15.7%
21,CCN(CC)CCn1c(C)nc2ccccc21,inactive: 5.33%
22,CN(C)S(=O)(=O)c1ccc(/C(O)=C2/C(=O)C(=O)N(CCCN3CCOCC3)C2c2ccncc2)cc1 (centres undefined),inactive: 11.8%
23,O=C(Nc1cc(S(=O)(=O)Nc2ccccc2Cl)ccc1O)c1ccc(F)cc1F,inactive: -1.51%
24,CC1(Cc2ccc3c(c2)OCO3)C(=O)Nc2ccc(-c3cccc(C(F)(F)F)c3)cc21 (centres undefined),inactive: 1.56%
25,COc1ccc(Cl)cc1N(C)C(=O)c1ccc2c(=O)n3c(nc2c1)CCCCC3,inactive: 15.9%
26,CCn1c(=O)c(C(=O)NNC(=O)c2ccccc2F)c(O)c2ccccc21,inactive: -43.4%
27,COc1ccc(C(O)C(CC(=O)NCCCOC(C)C)C(=O)NCCCOC(C)C)cc1OC (centres undefined),inactive: 15.5%
